In the supplement of paper PMC12217912:
The other results are listed elsewhere or left out. Sequences were assembled here from the parent chain. Values near 0.05 are background.

B1: TEV protease; numbered along this chain (parent)
chain: MGESLFKGPRDYNPISSSICHLTNESDGHTTSLYGIGFGPFIITNKHLFRRNNGTLVVQSLHGVFKVKDTTTLQQHLVDGRDMIIIRMPKDFPPFPQKLKFREPQREERICLVTTNFQTKSMSSMVSDTSCTFPSGDGIFWKHWIQTKDGQCGSPLVSTRDGFIVGIHSASNFTNTNNYFTSVPKNFMELLTNQEAQQWVSGWRLNADSVLWGGHKVFMVKPEEPFQPVKEATQL

Variants of: B1
Assay: raw area under fraction-flipped curve 0-4 h after induction (AUC4h, not background-subtracted), DNA-recorder readout of cleavage of the substrate (dimensionless); higher = more cleavage of the substrate by the protease variant
Conditions: temperature: 34 °C; time window: 0-4 h after rhamnose induction
Method: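 In vivo DNA recorder in E. coli TOP10(DE3) ΔrhaA at 34 °C. Each TEVp single-site mutant (parent TEVp 0) is paired with a single-site variant of the 7-mer TEVs (canonical ENLYFQ|S). The substrate sits between flexible linkers in a Bxb1-sfGFP-TEVs-SsrA fusion, so cleavage stabilises Bxb1 and speeds flipping of a recombination array, read by NGS. The value is the raw area under the fraction-flipped curve over 0-4 h after rhamnose induction (AUC4h), with ≥20 reads per time point. It is not background-subtracted; inactive controls average about 0.047.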
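Further: Bxb1 expression induced with 0.2% (w/v) L-rhamnose at OD600 near 0.5, cultures sampled hourly, flipped fraction per protease–substrate barcode pair counted by paired-end Illumina sequencing.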

Variant | area with substrate ENLAFQS | area with substrate ENLCFQS | area with substrate ENLDFQS | area with substrate ENLEFQS | area with substrate ENLFFQS | area with substrate ENLHFQS | area with substrate ENLIFQS | area with substrate ENLKFQS | area with substrate ENLLFQS | area with substrate ENLMFQS | area with substrate ENLNFQS | area with substrate ENLPFQS | area with substrate ENLRFQS | area with substrate ENLSFQS | area with substrate ENLTFQS | area with substrate ENLVFQS | area with substrate ENLWFQS | area with substrate ENLGFQS | area with substrate ENLQFQS
H47G | 0.0562 | 0.0858 | 0.0593 | 0.066 | 0.0561 | 0.0543 | 0.0525 | 0.0584 | 0.065 | 0.0439 | 0.0632 | 0.0645 | 0.0542 | 0.0511 | 0.0625 | 0.0548 | 0.0545 | – | –
L48D | 0.0617 | 0.063 | 0.0655 | 0.0689 | 0.0685 | 0.0629 | 0.0674 | 0.0725 | 0.0412 | 0.0581 | 0.0649 | 0.0653 | 0.0531 | 0.0573 | – | – | 0.0616 | 0.056 | 0.0623
L48P | 0.0676 | 0.0643 | 0.0546 | 0.063 | – | 0.0299 | – | 0.0692 | – | 0.139 | 0.0509 | 0.0532 | 0.0566 | 0.0537 | – | – | 0.0609 | 0.0472 | –
L48T | 0.0517 | 0.0725 | 0.0652 | 0.0647 | 0.0789 | 0.0555 | 0.0717 | 0.0593 | 0.0557 | – | 0.0628 | 0.0559 | 0.0703 | 0.0506 | 0.0848 | 0.0587 | – | 0.0733 | 0.0726
R51I | 0.0633 | – | 0.0653 | 0.0526 | 0.0744 | 0.07 | 0.072 | 0.0812 | – | 0.0753 | 0.0762 | 0.0613 | 0.0638 | 0.0625 | – | 0.0704 | – | – | 0.0594
N52G | 0.0591 | 0.0616 | 0.0579 | 0.0622 | 0.0747 | 0.0682 | 0.0538 | 0.105 | 0.0685 | – | 0.0441 | 0.0618 | 0.058 | 0.0643 | – | – | 0.0601 | – | 0.067
T55V | 0.0594 | – | 0.0518 | 0.0651 | 0.0904 | 0.0523 | 0.0868 | 0.0757 | 0.0631 | 0.0782 | 0.0655 | 0.0524 | 0.0815 | 0.049 | – | – | – | – | 0.0732
L56F | 0.0498 | – | 0.0621 | 0.0593 | 0.0676 | 0.0611 | 0.0539 | 0.0716 | 0.0606 | 0.075 | 0.0645 | 0.0606 | 0.0697 | 0.0575 | – | 0.0781 | 0.0704 | 0.0596 | 0.0634
L56G | 0.0308 | 0.0558 | – | – | 0.0663 | 0.0441 | – | 0.0545 | 0.0503 | – | 0.0457 | 0.0449 | – | 0.0514 | – | 0.0491 | – | – | –
L56H | 0 | – | 0.0499 | – | 0.0821 | – | 0.0482 | 0.0564 | – | – | 0.0232 | 0.0519 | 0.0468 | 0.0613 | – | 0.0508 | 0.0462 | – | 0.0417
L56R | 0.036 | – | 0.0462 | – | 0.0544 | 0.0252 | 0.038 | 0.0625 | – | 0.0555 | 0.0459 | 0.0481 | – | 0.0365 | – | – | 0.0504 | 0.0511 | 0.053
S60T | 0.0574 | 0.0904 | 0.0696 | 0.0634 | 0.126 | 0.0703 | 0.0666 | 0.0947 | – | – | – | 0.0718 | 0.075 | 0.0785 | 0.0704 | 0.0819 | – | 0.0758 | 0.0673
L61C | 0.0617 | 0.0774 | 0.0624 | 0.0703 | 0.0946 | 0.101 | 0.0909 | 0.0812 | 0.0672 | 0.0771 | 0.0641 | 0.0674 | 0.0813 | 0.0637 | 0.0682 | 0.0886 | – | 0.0572 | 0.0659
G63W | 0.0659 | 0.0629 | 0.0507 | 0.0624 | 0.0818 | 0.0624 | 0.0797 | 0.0762 | 0.0642 | 0.0723 | 0.0645 | 0.0552 | 0.061 | 0.0539 | 0.0941 | 0.0762 | 0.0663 | 0.0491 | 0.106
V64A | 0.069 | 0.0773 | 0.0755 | – | 0.0983 | 0.0604 | 0.0691 | 0.0356 | 0.0754 | 0.0756 | 0.0622 | – | 0.0766 | 0.0598 | 0.0653 | – | – | – | –
V64D | 0.0502 | – | 0.0646 | 0.0541 | 0.116 | 0.0557 | 0.0763 | 0.0885 | – | – | 0.0833 | – | 0.0594 | 0.0666 | – | 0.0796 | – | – | –
V64G | 0.0669 | 0.0504 | 0.0658 | – | 0.0739 | 0.0676 | 0.0629 | 0.0703 | – | – | 0.066 | 0.0539 | – | – | – | – | 0.0647 | – | –
V64M | 0.0728 | 0.0697 | 0.108 | 0.0527 | 0.087 | 0.0743 | 0.0874 | 0.0768 | – | – | 0.0763 | 0.0586 | – | 0.0534 | – | – | 0.0602 | – | 0.0714
K66S | 0.0524 | – | 0.0673 | – | 0.0909 | – | – | – | 0.0298 | – | 0.0679 | 0.0732 | – | – | – | – | – | – | 0.0239
K68R | 0.0712 | – | 0.0474 | – | 0.0747 | 0.0729 | 0.0905 | 0.0924 | 0.0384 | – | 0.0663 | 0.0745 | 0.0754 | 0.0603 | – | – | 0.0697 | – | 0.117
D69P | 0.0606 | 0.0883 | 0.0713 | – | 0.0837 | 0.0668 | 0.0719 | 0.06 | 0.0653 | 0.065 | 0.0601 | 0.0436 | 0.0645 | 0.0583 | 0.0731 | 0.0871 | 0.0643 | – | 0.0663
T72F | 0.0694 | 0.0828 | 0.0651 | – | 0.0932 | – | 0.0807 | 0.0702 | – | 0.0635 | 0.0681 | 0.0631 | 0.0634 | 0.0776 | – | – | 0.0559 | – | 0.0566
H76C | 0.0716 | – | 0.0649 | 0.068 | 0.0978 | 0.0685 | 0.109 | 0.0808 | 0.0671 | – | 0.0619 | 0.0721 | 0.0721 | – | – | 0.0896 | – | 0.071 | 0.0789
L77F | 0.0638 | 0.062 | 0.0555 | 0.0622 | 0.0678 | 0.0593 | 0.0701 | 0.0661 | 0.0761 | 0.0658 | 0.0715 | 0.041 | 0.057 | 0.052 | – | 0.0816 | 0.07 | – | 0.0526
L77K | 0.0578 | – | – | 0.0611 | 0.058 | 0.0707 | – | 0.0744 | 0.0517 | – | 0.0769 | 0.0565 | 0.0556 | – | – | – | 0.0406 | 0.0562 | –
